Test results from publication PMC4336329 (PLoS ONE, 2015).
About 14,000 (4.5%) of roughly 310,000 compounds showed an effect of 50% or more. Effects have a minus sign here. Some of the results follow.

These compounds were tested against human ether-à-go-go-related gene (hERG) potassium channel (human, UniProt Q12809) (assay: primary screen, population patch clamp on CHO cells stably expressing hERG).
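Further: peak tail current of the secondary pulse compared with the same well before compound.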

Chain of human ether-à-go-go-related gene (hERG) potassium channel (Q12809 whole entry, looked up): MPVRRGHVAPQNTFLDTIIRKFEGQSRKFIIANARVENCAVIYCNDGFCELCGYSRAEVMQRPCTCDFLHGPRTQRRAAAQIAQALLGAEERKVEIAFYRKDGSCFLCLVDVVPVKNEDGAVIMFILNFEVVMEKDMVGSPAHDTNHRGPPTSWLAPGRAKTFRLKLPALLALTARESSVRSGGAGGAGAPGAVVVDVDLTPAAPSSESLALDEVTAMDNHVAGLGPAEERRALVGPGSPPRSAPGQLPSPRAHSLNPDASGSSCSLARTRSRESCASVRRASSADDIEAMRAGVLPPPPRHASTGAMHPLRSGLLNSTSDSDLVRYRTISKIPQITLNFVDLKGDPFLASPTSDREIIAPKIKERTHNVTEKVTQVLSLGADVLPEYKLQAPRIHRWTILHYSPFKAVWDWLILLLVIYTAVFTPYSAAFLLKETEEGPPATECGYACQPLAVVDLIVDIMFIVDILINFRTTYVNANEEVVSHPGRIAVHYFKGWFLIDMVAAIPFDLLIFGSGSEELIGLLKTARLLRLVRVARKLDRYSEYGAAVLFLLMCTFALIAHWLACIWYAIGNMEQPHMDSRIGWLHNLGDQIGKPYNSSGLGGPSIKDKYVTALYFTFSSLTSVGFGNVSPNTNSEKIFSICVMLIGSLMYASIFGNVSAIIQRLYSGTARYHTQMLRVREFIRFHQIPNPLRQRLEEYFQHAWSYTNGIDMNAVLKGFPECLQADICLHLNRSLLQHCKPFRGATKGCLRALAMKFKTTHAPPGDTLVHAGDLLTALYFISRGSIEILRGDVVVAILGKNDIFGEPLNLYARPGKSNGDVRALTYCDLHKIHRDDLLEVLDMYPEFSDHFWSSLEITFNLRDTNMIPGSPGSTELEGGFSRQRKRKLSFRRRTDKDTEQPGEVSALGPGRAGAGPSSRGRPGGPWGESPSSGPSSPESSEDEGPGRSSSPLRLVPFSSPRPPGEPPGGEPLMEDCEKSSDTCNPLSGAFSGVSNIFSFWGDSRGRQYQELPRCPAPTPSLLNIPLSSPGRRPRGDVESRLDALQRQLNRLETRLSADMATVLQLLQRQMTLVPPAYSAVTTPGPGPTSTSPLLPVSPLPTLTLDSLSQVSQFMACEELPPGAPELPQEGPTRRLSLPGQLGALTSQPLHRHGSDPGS

Row | SMILES | hERG current change (%, negative = inhibition) at 10uM [%]
1 | COc1cc(NC(=O)c2ccc(NS(=O)(=O)c3c(C)noc3C)cc2)cc(OC)c1 | 1.03
2 | Cc1ccc(S(=O)(=O)N2CCOCC2)cc1NC(=O)COc1ncnc2ccccc12 | 12.9
3 | CCOC(=O)C1=C(CN2CCN(c3ccc(F)cc3)CC2)NC(=O)NC1c1cccs1 (centres unmarked) | -41
4 | O=C(c1cccc(F)c1)N1CCN(c2cc(N3CCCCC3)c(F)cc2[N+](=O)[O-])CC1 | 0.466
5 | COc1ccc(/C=N/NC(=S)Nc2cccc(C(=O)O)c2)cc1 | 15.9
6 | CCOC(=O)c1cc2c(=O)n3ccccc3nc2n(CCOC)c1=NC(=O)c1ccncc1 | -51.3
7 | CCOC(=O)c1ccc(NC(=O)COc2ccccc2CNCCc2ccccc2)cc1.Cl | -79.3
8 | Cc1ccc(Oc2cc(NN3CCCCC3)c([N+](=O)[O-])cc2[N+](=O)[O-])c(Cl)c1 | -7.28
9 | Cc1ccc(S(=O)(=O)N2CCCC2CNC(=O)C(=O)NCc2cccs2)cc1 (centres unmarked) | -23.2
10 | Cc1nc(N)sc1C(=O)N/N=C/c1ccccc1[N+](=O)[O-] | 43.7
11 | CCCn1c(N)c(N(CCOC)C(=O)COC(=O)CSc2cc(C)c3ccccc3n2)c(=O)[nH]c1=O | 1.53
12 | N/C(=N\OC(=O)c1ccc([N+](=O)[O-])cc1)c1ccc(Br)cc1 | 6.19
13 | CCOc1ccccc1NC(=O)Cn1c(=O)n(CCC(=O)NC2CCCC2)c(=O)c2ccccc21 | 5.15
14 | O=C(c1ccc2c(=O)n3c(nc2c1)CCCCC3)N1CCCCC1 | 17.5
15 | CC(Oc1ccccc1)C(=O)N1CCN(c2ccc(N3CCCCCC3)nn2)CC1 (centres unmarked) | -52.7
16 | CCNC(=O)Cn1cnc2c1c(=O)n(C)c(=O)n2C | 20.9
17 | CCCOc1ccc(N2C(=O)CC(NCc3cccs3)C2=O)cc1 (centres unmarked) | -18.6
18 | C[C@H](NC(=O)[C@@H]1Cc2ccccc2CN1C(=O)OC(C)(C)C)C(=O)NCC1CCCO1 (some centres unmarked) | 20.6
19 | COc1ccc(NC(=O)C(C)(C)Oc2ccc(Cl)cc2)cn1 | -23.3
20 | CCCCCOCC(O)CCC(=O)NN (centres unmarked) | 24.8
21 | Cc1ccccc1C(C(=O)NC1CCCC1)N(C(=O)Cc1cccs1)c1ccc2c(c1)OCCO2 (centres unmarked) | -5.9
22 | CCOc1ccc(N2CC(C(=O)N3CCN(C(=O)c4ccco4)CC3)CC2=O)cc1 (centres unmarked) | -63.4
23 | COc1ccc(CC(=O)Nc2ccc3c(c2)CCC3)cc1S(=O)(=O)N1CCOCC1 | -31.6
24 | CC(O)CN1CCN(C(=O)CN2C(=O)NC(c3ccccc3)(c3ccccc3)C2=O)CC1 (centres unmarked) | 5.27
25 | CCOC(=O)C1=C(C)NC(=O)NC1c1cccnc1 (centres unmarked) | -0.326
26 | COc1ccc(C(=O)CN2CCN(CCN3C(=O)c4cccc5cccc(c45)C3=O)CC2)cc1 | -26.5
27 | COC(=O)c1ccc(-c2ncc[nH]2)cc1 | -5.14

Row | SMILES | hERG current change (%, negative = inhibition) at 10uM [%]
28 | CCOC(=O)c1cnc(SCC(=O)c2ccc(C)cc2)nc1N | 19.9
29 | O=C(COC(=O)c1cc(S(=O)(=O)N2CCOCC2)ccc1Cl)NCCc1ccccc1 | -23.3
30 | Cc1ccc2c(c1)C1CC(C)(O2)N(c2cccc(C(=O)NCc3ccccn3)c2)C(=O)N1 (centres unmarked) | 3.78
31 | COc1ccc(NC(=S)Nc2cccc([N+](=O)[O-])c2)cc1 | 3.68
32 | CC(C)(C)c1cc(NC(=O)c2ccco2)no1 | -7.04
33 | O=C(Nc1cccc(S(=O)(=O)N2CCCC2)c1)c1ccncc1 | -46.5
34 | COC(=O)c1sccc1NC(=O)/C=C/c1ccc(Cl)cc1Cl | 15.5
35 | O=C(NCc1ccc(S(=O)(=O)Nc2ccccc2Cl)s1)c1ccccc1 | -5.2
36 | COc1ccc(OC)c(NC(=O)NCc2cccnc2)c1 | 24.1
37 | CCOC(=O)c1ccc(N2C(=O)CC(C)(CC)CC2=O)cc1 | 3.55
38 | COc1ccc(CC(=O)N2CCCC(C)C2)cc1 (centres unmarked) | 18.1
39 | COc1ccc(-c2ccc(C(C)=O)cc2)cc1[C@H]1[C@@H]2C=CCC[C@@]2(C)C(=O)N1Cc1ccccc1 | 28.6
40 | COc1ccc(/C=C(\NC(=O)c2ccc(C)cc2)C(=O)NCCCn2ccnc2)cc1OC | 8.48
41 | CCC(c1nnnn1Cc1ccccc1)N(Cc1ccco1)Cc1cc2cc(OC)ccc2[nH]c1=O (centres unmarked) | -18.9
42 | Cc1onc(-c2ccccc2)c1C(=O)c1c[nH]c(C(=O)NCc2ccncc2)c1 | 5.17
43 | Fc1cccc(Cc2noc(CN3CCN(C4CCc5ccccc5C4)CC3)n2)c1 (centres unmarked) | -78.6
44 | Cc1ccccc1C(=O)Nc1ccccc1NC(=O)c1ccccc1Br | 25.4
45 | CC12C=CC3(O1)C(C(=O)N(c1cccnc1)C3C(=O)NC1CCCCC1)C2C(=O)Nc1ccccc1 (centres unmarked) | 13.6
46 | CCCCn1c(N)c(N(CCOC)C(=O)C(C)Oc2ccc(Cl)cc2)c(=O)[nH]c1=O (centres unmarked) | -6.37
47 | O=C(CNS(=O)(=O)c1ccccc1)OCC(=O)c1ccc(OC(=O)c2ccccc2)cc1 | -3.7
48 | COc1ccc(N2CCN(C(=O)CSc3nnnn3C3CC3)CC2)cc1 | -13.6
49 | Cc1cc(C)nc(N/N=C/c2cn[nH]c2-c2ccccc2)n1 | -6.34
50 | CCCCCCCOc1ccc(C2(C)NC(=O)NC2=O)cc1 (centres unmarked) | 11.3
51 | COc1ccc(NC(=O)CSc2nnc(Cn3cnc4ccccc43)n2C)cc1 | 4.13
52 | CC(C)CN(CCOc1cccc(N2C(=O)C3=C(CCCC3)C2=O)c1)CC(C)C | -42.7
53 | COc1ccc(-c2cc(C(=O)Nc3nc4ccccc4s3)c3ccccc3n2)cc1OC | 29.6
